# Values joined by “and” are separate entries in the source; they are usually repeats but may differ in a detail not shown here. Equal values may be shown once. The whole screen tested about 390,000 compounds, of which about 2,200 (0.56%) were called active. Inconclusive results, whose numbers are uncertain, are shown with a selection of clear calls. Calls come from the whole dose curve; as a rule, active = well fitted inhibition curve with a large enough effect; inconclusive = small, poorly fitted or top-dose-only effect; inactive = no such curve, though single readings can be large or run the other way. Potencies beside an inconclusive call are fits to weak or partial responses and may not hold up.
# Molecular target: Chromobox protein homolog 1 (Homo sapiens) (UniProt P83916)
# Assay: HTS for Inhibitors of HP1-beta Chromodomain Interactions with Methylated Histone Tails; note: nearly all actives have a fitted effect of over 70% in size
# Conditions: AlphaScreen HP1-beta / biotin-H3K9me3 peptide binding; series mostly up to 114 µM
# Procedure, shortened: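 HP1-beta protein (50 nM final) preincubated 30 min at room temperature with biotinylated H3(1-18)K9me3 peptide (50 nM) in PBS pH 7.4, 0.01% Tween-20, then compound added for 30 min. AlphaScreen streptavidin donor/nickel chelate acceptor beads (10 ug/mL final), 30 min dark, luminescence read.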
# Potency is the fitted concentration of half-maximal effect; tags give direction and shape of the fitted curve.
# Chain of UniProt P83916 (P83916 whole entry, looked up): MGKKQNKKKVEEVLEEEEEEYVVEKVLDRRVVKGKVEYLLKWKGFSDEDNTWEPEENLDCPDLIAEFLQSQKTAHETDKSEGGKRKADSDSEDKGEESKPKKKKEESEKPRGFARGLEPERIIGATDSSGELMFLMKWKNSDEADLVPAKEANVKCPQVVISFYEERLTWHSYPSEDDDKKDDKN
row,SMILES,Potency
1,CCCCN1CC(c2nc3ccccc3n2CCCCOc2cccc(C)c2C)CC1=O (stereo not given),inactive
2,C/C(N)=C(/C#N)C(=O)CSc1nnc(Nc2c(C)cccc2C)s1,"inconclusive: 70.8 µM [inhibitor, single point]"
3,COc1cc(CNC2CCCCCCC2)cc(Br)c1OCC#N,"inconclusive: 35.5 µM [inhibitor, single point]"
4,CSc1ccc(C2Nc3cccc4cccc(c34)N2)cc1,active: 17.8 µM
5,CCCCNC(=O)c1cc2c(-c3ccc(Cl)cc3)nn(C)c2s1,inactive
6,Cc1cnc(NC(=O)CSc2nnc(-c3ccc(Cl)cc3Cl)n2N)s1,"inconclusive: 28.2 µM [inhibitor, partial curve, poor fit]"
7,COc1cc([N+](=O)[O-])ccc1NC(=S)Nn1cnnc1,"inconclusive: 50.1 µM [inhibitor, partial curve, poor fit]"
8,Cc1sc(NC(=O)c2cc(-c3ccc(Cl)cc3)nc3ccccc23)c(C(N)=O)c1C,"inconclusive: 14.1 µM [inhibitor, partial curve]"
9,O=C1c2cc(O)cc(O)c2C(=O)c2c1cc(O)c([C@@H](CO)CCO)c2O,"inconclusive: 50.1 µM [inhibitor, partial curve, poor fit]"
10,Cc1cc(C)n(-c2nc3ccccc3nc2N2CCN(c3cccc(C(F)(F)F)c3)CC2)n1,inactive
11,Cc1ccc(C)c(S(=O)(=O)N2CCN(C(=O)c3ccc(C)s3)CC2)c1,inactive
12,O=c1c(O)cccc2cc(O)c(O)c(O)c12,"inconclusive: 1 µM [inhibitor, full curve, poor fit]"
13,Clc1ccccc1Cn1c(/C=C/c2ccco2)nc2ccccc21,"inconclusive: 17.8 µM [inhibitor, partial curve, poor fit]"
14,CCn1c(CN2CCOCC2)nnc1SCC(=O)Nc1ccccc1Cl,inactive
15,CC(C)OC(=O)CC(=O)CSc1nc2c(c(-c3cccs3)c1C#N)CCC2,inactive
16,COc1cc(/C=C2\SC(=O)NC2=O)ccc1Oc1ccc([N+](=O)[O-])cc1[N+](=O)[O-],"inconclusive: 25.1 µM [inhibitor, partial curve, poor fit]"
17,CCCCNC(C(=O)Nc1ccc(Cl)c([N+](=O)[O-])c1)c1ccccc1 (stereo not given),"inconclusive: 50.1 µM [inhibitor, partial curve, poor fit]"
18,CCCc1sc(N2CCCC(C(N)=O)C2)nc1-c1ccccc1 (stereo not given),"inconclusive: 20 µM [inhibitor, single point]"
19,CCOc1ccc2nc(/N=C/c3nc(-c4ccc(Br)cc4)oc3O)sc2c1,"inconclusive: 39.8 µM [inhibitor, single point]"
20,Cc1ccc(NC2=NCC(=O)N2Cc2ccccc2)c(C)c1,inactive
21,COc1cc(NC(=O)CCCOc2cc(=O)n(C)c3ccccc23)cc(OC)c1OC,inactive
22,COc1ccc(-c2csc(Nc3ncccn3)n2)cc1C,inactive
23,Cc1cccc(-n2c(SCC(=O)NCC3CCCO3)nc3ccccc3c2=O)c1C (stereo not given),inactive
24,O=C1/C(=C/c2ccc(O)c([N+](=O)[O-])c2)SC(=S)N1Cc1ccccc1,"inconclusive: 5.62 µM [inhibitor, full curve]"

row,SMILES,Potency
1,CC(C)CCNc1nc2c(c(=O)n(Cc3cccc(F)c3)c(=O)n2C)n1C,"inconclusive: 44.7 µM [inhibitor, partial curve]"
2,CCOC(=O)c1sc(NC(=O)CSc2nc(C)cc(C(F)(F)F)n2)c(C#N)c1C,"inconclusive: 31.6 µM [inhibitor, single point]"
3,O=C1NC(=O)/C(=C/c2ccccc2OCc2ccccc2)S1,inactive
4,Cc1coc(C)c1C(=O)CC1(O)C(=O)N(Cc2ccccc2)c2ccccc21 (stereo not given),"inconclusive: 89.1 µM [inhibitor, partial curve, poor fit]"
5,O=c1c2ccccc2sn1-c1cc(S(=O)(=O)N2CCOCC2)ccc1N1CCOCC1,active: 15.8 µM and active: 8.91 µM
6,CC(=O)Nc1ccc(-n2cc(-c3ccccc3)[nH]c2=S)cc1,"inconclusive: 70.8 µM [inhibitor, single point]"
7,CCC(=O)c1ccccc1OCCCCn1cncn1,"inconclusive: 15.8 µM [inhibitor, partial curve, poor fit]"
8,O=C1S/C(=C\c2ccccc2)C(=O)N1CC(O)Cn1c2ccccc2c2ccccc21 (stereo not given),inactive
9,Nc1ccc2ccc(O)cc2c1,"inconclusive: 79.4 µM [inhibitor, partial curve, poor fit]"
10,COc1ccc(N2CCN(CCCNC(=O)c3cc(Nc4ccc(OC)cc4OC)nc4ccccc34)CC2)cc1,"inconclusive: 22.4 µM [inhibitor, full curve]"
11,CCOc1ccc(Cn2c(SCCCCC#N)nc3c2c(=O)n(C)c(=O)n3C)cc1OCC,"inconclusive: 7.08 µM [inhibitor, full curve]"
12,O=[N+]([O-])c1cccnc1N1CCC(c2cc(-c3ccc(Cl)cc3)n[nH]2)CC1,"inconclusive: 31.6 µM [inhibitor, partial curve]"
13,Cc1ccc2[nH]c(=O)c(CN(C)C(=O)c3cccs3)cc2c1,"inconclusive: 39.8 µM [inhibitor, single point]"
14,COc1ccc(C(=O)N2CCCC(Nc3ccc(C)c(C)c3)C2)cc1F (stereo not given),"inconclusive: 79.4 µM [inhibitor, single point]"
15,CCO[C@H]1OC(C(=O)O)=C[C@@H](c2csc3ccccc23)[C@@H]1CCCO,inactive
16,CNc1ccccc1C(C)(C)c1cc(-c2cc(C)cc(C)c2)no1,inactive
17,Cc1ccc(C)c(NC(=O)CN(C)S(=O)(=O)c2ccc3c(c2)CCC(=O)N3)c1,inactive
18,CC(C)NC(=O)N1CCN(S(=O)(=O)c2ccc3c(ccn3C)c2)CC1,inactive
19,COc1ccc(Nc2nc(C(=O)N(CCO)Cc3ccccc3)cs2)cc1,inactive
20,C=CCn1c(C)cc(-c2csc(NC)n2)c1C,"inconclusive: 50.1 µM [inhibitor, partial curve]"
21,CC(=O)c1cccc(CN2CCCC(C(=O)Nc3ccc(-c4ccco4)cc3)C2)c1 (stereo not given),active: 17.8 µM
22,COc1cc(OC)c(C2Nc3cccc4cccc(c34)N2)c(OC)c1,"inconclusive: 44.7 µM [inhibitor, partial curve]"
23,CC(C)c1ccc(C2CC(=O)N3CN(Cc4ccco4)CSC3=C2C#N)cc1 (stereo not given),"inconclusive: 17.8 µM [inhibitor, full curve]"
24,Cc1nc2ccccn2c1C(=O)N/N=C/c1ccc([N+](=O)[O-])o1,"inconclusive: 50.1 µM [inhibitor, partial curve]"

row,SMILES,Potency
1,Cc1ccc(C(OCC(O)CNC(C)c2ccccc2)c2ccccc2)cc1 (stereo not given),"inconclusive: 56.2 µM [inhibitor, single point]"
2,COc1cc2c(cc1OC(C)=O)CCCCC2=O,inactive
3,CN(CC(=O)Nc1cccc(F)c1)CC(=O)Nc1ccccc1-c1ccccc1,inactive
4,Nc1ccc2c(c1)OC1(CCCCC1)O2,"inconclusive: 39.8 µM [inhibitor, partial curve]"
5,CCOc1cc(/C=C(\C#N)C(=O)Nc2cccc(C(=O)O)c2)ccc1OCc1ccc(Br)cc1,"inconclusive: 79.4 µM [inhibitor, partial curve, poor fit]"
6,CN(C)CCCNc1ncnc2scc(-c3ccccc3)c12,"inconclusive: 28.2 µM [inhibitor, partial curve]"
7,CC(=O)C1=C(O)C(=O)N(CCc2c[nH]c3ccccc23)C1c1ccc(O)cc1 (stereo not given),inactive
8,CCOc1cc(/C=C2\SC(=S)N(NC(=O)c3cccnc3)C2=O)ccc1O,"inconclusive: 56.2 µM [inhibitor, partial curve, poor fit]"
9,CCCn1c2ccccc2c2cnn(CC(=O)N3CCCC(C)C3)c(=O)c21 (stereo not given),inactive
10,COc1cc(NC(=O)c2ccc(C)cc2C)ccc1NC(=O)c1cccs1,inactive
11,Cc1scc(C(=O)N/N=C/c2ccc(Cl)s2)c1C,inactive
12,CN(Cc1ccc(Cl)cc1Cl)C(=O)CNC(=O)c1ccc2c(c1)OCO2,"inconclusive: 79.4 µM [inhibitor, partial curve, poor fit]"
13,CCc1cccc2sc(N3CCN(C(=O)c4ccc([N+](=O)[O-])o4)CC3)nc12,"inconclusive: 28.2 µM [inhibitor, full curve]"
14,COc1ccc(-c2cc(C(=O)N/N=C/c3ccc(OC)c(COCC(F)(F)C(F)F)c3)c3ccccc3n2)c(OC)c1,"inconclusive: 6.31 µM [inhibitor, single point]"
15,CC(C)(C)c1ccc(C(=O)NCC(=O)N2CCC3(CC2)NCCc2[nH]cnc23)cc1,inactive
16,O=C(COC(=O)/C(=C/c1cccs1)c1cccs1)NC(c1ccccc1)c1ccccc1,"inconclusive: 31.6 µM [inhibitor, single point]"
17,COc1cccc(-c2nnc(SCC(=O)N3CCOCC3)o2)c1,"inconclusive: 35.5 µM [inhibitor, partial curve]"
18,CCOC(=O)CN1C(=O)C(Sc2n[nH]c(-c3ccccc3)n2)CCc2ccccc21 (stereo not given),inactive
19,O=[N+]([O-])c1cc2c(cc1/C=N/n1c(-c3ccccc3)n[nH]c1=S)OCO2,"inconclusive: 28.2 µM [inhibitor, single point]"
20,Cc1ccccc1NC(=O)c1ccccc1NC(=O)CCC(=O)O,inactive
21,CC(/C=N/NC(=O)c1cc(-c2ccncc2)nc2ccccc12)=C\c1ccco1,"inconclusive: 44.7 µM [inhibitor, partial curve]"
22,COc1cc(CN2CCCN(C)CC2)cc([N+](=O)[O-])c1O,"inconclusive: 70.8 µM [inhibitor, partial curve]"

# From PubChem BioAssay AID540317 (National Center for Advancing Translational Sciences (NCATS), 2011)
